Data on 31 compounds can be found in PubChem BioAssay AID1745853 (National Center for Advancing Translational Sciences (NCATS), 2022).

Structures are written as SMILES. Values joined by “and” are separate entries in the source; they are usually repeats but may differ in a detail not shown here. Identical values can stand only once. Some of the results follow. Further columns of the screen follow, without active or inactive calls.

Holding throughout (assay): Primary Screen for Target Class Profiling of Small Molecule Inhibitors of Methyltransferases
Assay [1] concerns the target Glycine N-methyltransferase (Homo sapiens) (UniProt Q14749). The following applies: purified enzyme, MTase-Glo SAH luminescence; measured here: GNMT inhibition; at 40 µM; stronger effect = lower value. In outline: (§1)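 Each enzyme was reacted with SAM and its substrate, with compounds tested once at 40 uM; SAH formed was read by MTase-Glo luminescence.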
The target in assay [2] is Guanidinoacetate N-methyltransferase (Homo sapiens) (UniProt Q14353). The following applies: purified enzyme, MTase-Glo SAH luminescence; measured here: GAMT inhibition; at 40 µM; stronger effect = lower value. In a few lines: as §1
The target of assay [3] is Histamine N-methyltransferase (Homo sapiens) (UniProt P50135). Conditions: purified enzyme, MTase-Glo SAH luminescence; measured here: HNMT inhibition; at 40 µM; stronger effect = lower value. In a few lines:
as §1

The target in assay [4] is Nicotinamide N-methyltransferase (Homo sapiens) (UniProt P40261). Conditions: purified enzyme, MTase-Glo SAH luminescence; measured here: NNMT inhibition; at 40 µM; stronger effect = lower value. In a few lines:
as §1

The target of assay [5] is Phenylethanolamine N-methyltransferase (Homo sapiens) (UniProt P11086). Conditions: purified enzyme, MTase-Glo SAH luminescence; measured here: PNMT inhibition; at 40 µM; stronger effect = lower value. In outline:
as §1
% is set by controls: 0 for no effect and ±100 for the full control effect.

`COc1ccc2[nH]cc(C(=O)Cn3nc4n(Cc5ccc(F)cc5)c(=O)c5ccccc5n4c3=O)c2c1`: the activity change, negative = inhibition in assay [1] is 5.29%; in assay [2], 0.133%; in assay [3], 3.92%; in assay [4], 1.35%; in assay [5] it was 2.26%.

`O=S(=O)(NC[C@H]1O[C@@H](CO)[C@@H](O)[C@H]1N1CCN(c2ccc(F)cc2)CC1)c1ccc(F)cc1`: the activity change, negative = inhibition in assay [1] was 0.424%; in assay [2], -3.63%; in assay [3] it was 1.72%; in assay [4], -1.71%; in assay [5], 0.571%.

Consider `CC(C)(C)c1cc2n(n1)CC(C)(C(=O)NC1CCCCCC1)N(c1ccc(F)cc1F)C2=O` (stereo not drawn), for which the activity change, negative = inhibition in assay [1] was 2.59%; in assay [2] it was 0%; in assay [3], 3.96%; in assay [4], 1.55%; in assay [5] it was -0.161%.

With `CC(C)(Cc1ccccc1)NCC(O)c1ccc(O)c(NS(C)(=O)=O)c1` (stereo not drawn), the activity change, negative = inhibition is -1.37% in assay [1]; -6.67% in assay [2]; -5.19% in assay [3]; -14.1% in assay [4]; -8.18% in assay [5].

For `CCCN1C[C@@H](CO)[C@H](c2nc(CCOC)no2)C1`, the activity change, negative = inhibition in assay [1] was 0.439%; in assay [2], -2.16%; in assay [3] it was 2.45%; in assay [4], 1.66%; in assay [5], 2.37%.

As to `COc1cccc(-c2cc(CC3(O)CCN(c4nnc(C)o4)CC3)on2)c1`, the activity change, negative = inhibition in assay [1] is -2.7%; in assay [2] it was -1.62%; in assay [3], 0.637%; in assay [4], -3.93%; in assay [5] it was -3.75%.

`Cc1ccc(Cn2c(=O)c3ccccc3n3c(CCC(=O)NC4CCN(Cc5ccccc5)CC4)nnc23)cc1`: the activity change, negative = inhibition was -7.81% in assay [1]; 5.13% in assay [2]; -21.4% in assay [3]; 3.5% in assay [4]; -4.78% in assay [5].

With `O=C(NCCc1ccccc1)c1ccc2c(=O)nc3c(-c4ccccc4)n[nH]n3c2c1`, the activity change, negative = inhibition in assay [1] was -2.38%; in assay [2] it was 1.08%; in assay [3], 2.64%; in assay [4], -2.46%; in assay [5], -2.96%.

As for `COc1ccc(Nc2ccc3c(n2)CN(Cc2ccccc2C)C(=O)CO3)cc1`, the activity change, negative = inhibition in assay [1] was -11.1%; in assay [2], -5.77%; in assay [3] it was -12.4%; in assay [4], -18.8%; in assay [5], -3.94%.

With `O=C(NCCc1ccccc1)C1CCC(=O)N(CCCN2CCOCC2)C1` (stereo not drawn), the activity change, negative = inhibition was -1.02% in assay [1]; 1.18% in assay [2]; 1.4% in assay [3]; 2.22% in assay [4]; -1.72% in assay [5].

For the compound `Cc1ccnc(NC(=O)C(C)c2cccc(C(=O)c3ccccc3)c2)c1` (stereo not drawn), the activity change, negative = inhibition in assay [1] was -3.96%; in assay [2], 8.88%; in assay [3] it was 10.3%; in assay [4], -16.8%; in assay [5] it was -2.01%.

As to `CC(=O)Nc1c2n(c3ccccc13)CC(C)(C(=O)NC1CCCC1)N(Cc1ccccc1)C2=O` (stereo not drawn), the activity change, negative = inhibition in assay [1] was -0.528%; in assay [2], 3.1%; in assay [3] it was 2.87%; in assay [4] it was 4.73%; in assay [5] it was 2.22%.

Take `CC(C)=CCN1Cc2ccccc2NC(=O)C12CCNC2` (stereo not drawn): the activity change, negative = inhibition in assay [1] was 0.111%; in assay [2] it was -1.28%; in assay [3], -8.7%; in assay [4], -3.98%; in assay [5], 4.46%.

`COc1cc2c(NC3CCN(C(C)C)CC3)nc(C3CCCCC3)nc2cc1OCCCN1CCCC1`: the activity change, negative = inhibition in assay [1] is -6.91% and -3.35%; in assay [2], 4.81%; in assay [3], -81.1% and -4.43%; in assay [4] it was -44.4% and -40.3%; in assay [5], 2.76% and 14.4%.

As for `O=C(Nc1ccccc1)Nc1ccc(-c2ccc(C(=O)C3CCCC3C(=O)O)cc2)cc1` (stereo not drawn), the activity change, negative = inhibition in assay [1] was -19.1%; in assay [2], 4.93%; in assay [3], 9.32%; in assay [4] it was -23%; in assay [5], 2.94%.

`CC(C)c1cc2n(n1)CC(C)(C(=O)NC1CCCCC1)N(Cc1ccc(Cl)cc1)C2=O` (stereo not drawn): the activity change, negative = inhibition in assay [1] was -9.12%; in assay [2], 2.67%; in assay [3], -1.93%; in assay [4] it was -6.03%; in assay [5] it was -2.71%.

For the compound `CCCn1c(=O)c2cc(Cl)ccc2n2c(SCC(=O)Nc3ccc(F)cc3)nnc12`, the activity change, negative = inhibition in assay [1] is -2.11%; in assay [2], -0.069%; in assay [3] it was 4.6%; in assay [4], -8.73%; in assay [5], -2.03%.

On to `CCCSCCCN1C(=O)c2cc3sc(CC)cc3n2CC1(C)C(=O)NC1CCC(C)CC1` (stereo not drawn), for which the activity change, negative = inhibition in assay [1] is -0.071%; in assay [2] it was 2.07%; in assay [3], 4.72%; in assay [4], -3.21%; in assay [5], 0.761%.

`CC(C)Cn1c(=O)c2ccc(C(=O)NC(C)C)cc2n2c(=O)n(CC(=O)Nc3cc(F)ccc3F)nc12`: the activity change, negative = inhibition in assay [1] was determined as 0.78%; in assay [2] it was 3.33%; in assay [3], 4.56%; in assay [4] it was 0.502%; in assay [5] it was 0.925%.

`Clc1ccc(-c2nnn3c2nc(N2CCCCC2)c2ccccc23)cc1`: the activity change, negative = inhibition in assay [1] is 2.31%; in assay [2] it was 0%; in assay [3], 1.84%; in assay [4], 7.33%; in assay [5] it was -1.1%.

Consider `COc1cccc(CN2CCNC(=O)C2CC(=O)N2CCNC(=O)C2)c1OC` (stereo not drawn), for which the activity change, negative = inhibition in assay [1] was -3.03%; in assay [2] it was -7.1%; in assay [3] it was 0.92%; in assay [4], -8.25%; in assay [5], -10.1%.

For the compound `C#Cc1cccc(Nc2ncnc3cc(OC)c(OCCCCCCC(=O)NO)cc23)c1`, the activity change, negative = inhibition was -54.3% and -40.8% in assay [1]; -42.7% in assay [2]; -65.8% and -42.3% in assay [3]; -51.1% and -49.1% in assay [4]; -62.1% and -56.2% in assay [5].

Regarding `COCCN1CCC2(CCC1=O)CN(C(=O)NC(C)C)CCN2C` (stereo not drawn), the activity change, negative = inhibition in assay [1] is -1.35%; in assay [2], 0.842%; in assay [3] it was 1.99%; in assay [4] it was -0.493%; in assay [5], 13.8%.

In the case of `O=C(O)C1CN(Cc2ccc(-c3nc4cc(Cc5ccccc5F)ccc4s3)c(F)c2)C1`, the activity change, negative = inhibition in assay [1] was 2.43%; in assay [2], 5.34%; in assay [3], 5.25%; in assay [4] it was -7.76%; in assay [5], 2.64%.

`c1nc(NCC2CCOC2)c2cc(-c3ccc4c(c3)OCO4)ccc2n1` (stereo not drawn): the figures for the activity change, negative = inhibition in assay [2], in assay [4] and in assay [5] were -31.2%, -39.3% and -50.6%, respectively.

Consider `CC1CCC(NC(=O)C2(C)Cn3c(cc4sccc43)C(=O)N2Cc2ccccc2F)CC1` (stereo not drawn), for which the activity change, negative = inhibition is -2.87% in assay [1]; 3.39% in assay [2]; -1.74% in assay [3]; -0.065% in assay [4]; -7.7% in assay [5].

As to `O=C(c1cn2ccccc2n1)N1C[C@@H](CO)[C@H](c2ccccn2)C1`, the activity change, negative = inhibition in assay [1] was -0.019%; in assay [2] it was -1.53%; in assay [3] it was -0.2%; in assay [4], 1.96%; in assay [5], 3.72%.

On to `C=C(C)n1c(=O)n(Cc2ccccc2C)c2ccccc21`, for which the activity change, negative = inhibition in assay [1] was -6.85%; in assay [2] it was 0.118%; in assay [3], -2.04%; in assay [4] it was -8.22%; in assay [5] it was -2.84%.

`FC(F)(F)c1ccc(CNc2ccc(Cc3c[nH]c4ncccc34)cn2)cc1`: the activity change, negative = inhibition was -2.77% in assay [1]; -5.67% in assay [2]; -23.9% in assay [3]; -38.1% in assay [4]; -22.9% in assay [5].

Take `CCCN1C(=O)c2c(C(=O)NCc3cccc(C)c3)ncn2CC1(C)C(=O)NCc1ccccc1` (stereo not drawn): the activity change, negative = inhibition was -1.53% in assay [1]; 0% in assay [2]; 9% in assay [3]; 8.87% in assay [4]; 5.39% in assay [5].

Regarding `CC1(C(=O)NC2CCCC2)Cn2cnc(C(=O)NCCc3ccc(Cl)cc3)c2C(=O)N1C1CC1` (stereo not drawn), the activity change, negative = inhibition in assay [1] was found to be 0.088%; in assay [2] it was 0%; in assay [3], 3.17%; in assay [4], 0.657%; in assay [5], 2.69%.
